# Laboratory results taken from PubChem BioAssay (NCI).
# Where a structure was tested more than once in an assay, its records may differ in their call.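 For each line, cells grew in 96-well plates with the test compound present at a single concentration for 48 hours.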 Certain results were filed several times, with different values. They are shown here; other results are not. Rule for the calls: active = growth percent below 10; inactive = the rest. There may be further records. These are repeated runs of one drug, at the concentration stated with the values; each value is one run. Additions like (4×) give the number of equal values in this list.
# Tests used:
# [1] = test system: U251 CNS; assay: NCI-60 one-dose screen, 48 h (100 = growth as untreated, 0 = no growth, -100 = all killed)
# [2] = test system: SK-MEL-5 melanoma; assay: as above; details: 0.25 µM
smiles,measurement,setting,value
COc1cccc2c1C(=O)c1c(O)c3c(c(O)c1C2=O)C[C@@](O)(C(=O)CO)C[C@@H]3OC1CC(N)C(O)C(C)O1 (stereo partly drawn),growth,"[1]; 0.25 µM, runs of 2016","inactive: 12.7 (2×), 14, 12.3 (2×), 12.1 (2×), 11.5 (2×), 21, 13.9 (3×), 11.9, 11.1, 11.6, 12.9, 17.6, 19, 12, 10.8 (2×), 14.3 (2×), 11.2, 12.5 (2×), 12.4, 13.8, 10.6, 16.3 (2×), 14.7, 18.4, 14.2, 16.7 (3×), 20.4 (3×), 15.7, 18.9, 14.1, 13.1 (2×), 18.2, 18.8, 18.7 (2×), 15.6, 24 (2×), 20.2, 24.9, 22.4, 20.9, 22.3, 15.1, 10, 20, 19.3, 16, 21.6, 11.7% and active: 9.83, 6.03, 9.61, 7.67, 7.84, 8.07, -0.855, 9.31%"
same,growth,"[1]; 0.25 µM, runs of 2017","inactive: 14.5 (2×), 16.3 (2×), 14.2 (3×), 15.1, 11.7 (3×), 13 (3×), 11.5 (2×), 10.8 (2×), 15, 14 (3×), 14.8, 14.7 (2×), 12.7 (2×), 10.5, 12.4 (2×), 13.1 (3×), 18.3 (2×), 15.2 (2×), 11 (2×), 12.5, 15.3, 13.7 (2×), 12.3 (2×), 15.7, 10.4 (2×), 15.5, 14.1, 10.9, 12, 10.6, 11.9 (3×), 11.3, 12.1, 10.1, 10.7, 12.9, 13.5 (3×), 11.4, 13.8, 13.2% and active: 6.78, 8.99, 8.86, 8.87, 9.83, 9.55, 9.41, 9.57%"
same,growth,"[1]; 0.25 µM, runs of 2018","inactive: 12.9, 11 (2×), 16 (2×), 11.2 (2×), 14.7, 11.5 (3×), 13.7 (2×), 12.3 (2×), 11.4, 13.9 (2×), 15.7 (2×), 12.8, 18.1, 15.6, 10.9, 13.2, 16.9, 18.8, 15.1, 14.5, 15 (2×), 15.3, 12.4, 12, 11.9, 15.5, 11.8, 16.3, 13.1, 10.6% and active: 8.21, 9.58, 8.29, 9.92, 9.46, 9.53, 5.32, 8.1%"
same,growth,"[1]; 0.25 µM, runs of 2019","inactive: 16, 10.3, 11.1, 11.7, 14.2, 10.9, 11.6 (3×), 15.1, 12, 15.2, 13.2, 13.6, 10.1, 13 (2×), 12.1, 11.5 (2×), 13.1 (2×), 16.9, 19.2, 20.3, 13.8, 11.9 (2×), 11.3, 11.4, 10.8, 12.8, 11.2, 10.6, 10.7, 12.3 (2×), 16.4, 13.9, 14.3% and active: 8.5, 8.44, 9.67, 8.28, 3.51, 8.46, 8.68, 8.71, 9.84, 9.71, 9.68%"
same,growth,"[1]; 0.25 µM, runs of 2020","active: 6.61%, 9.88% and inactive: 11.9, 13.2, 12.9 (2×), 16.4, 14.9, 12.1, 15.5, 13.6 (2×), 10.8, 17.1, 14.3, 16.3, 12, 14.5, 13.7%"
same,growth,"[1]; 0.25 µM, runs of 2021","inactive: 18.1, 17.6, 17.5, 16.4, 20.4, 17, 15.5, 10.1 (2×), 13.6 (2×), 11.7, 18.7, 13.7 (2×), 12.9, 14, 15.2, 11.3 (3×), 14.2 (2×), 12.3, 15.3, 11.2, 16, 14.8, 13.9 (2×), 13.2, 14.7, 10, 22, 20, 22.1, 10.8, 10.2, 14.1, 12.7, 25.8, 18.9% and active: 7.99, 9.99, 2.59, 7.66, 9.77%"
same,growth,"[1]; 0.25 µM, runs of 2022","active: 4.51, 4.62, 9.74, 4.02, 6.26, 6.69, 8.96, 9.28, 8.2, 9.88% and inactive: 11.7, 11.5, 11.1, 14.3, 19.4, 14.8, 19.7, 10.5, 11.8, 32.6, 43.4, 15, 33, 22.9, 43.5, 12, 18.2, 10.7%"
same,growth,"[1]; 25 µM, runs of 1991","active: -26.3, -33.5, -14.3, -20.5, -25.9, -22.6, -13.8, -5.22, 3.16, 1.16, -23.9, -10.5, -3.22, 0.485% and inactive: 98.5%"
same,growth,"[1]; 25 µM, runs of 1992","active: -23.4, -45.2, -32.7, -3.22, 2.06, -33.7, -29.6, -45.4, -34.6 (2×), -4.78, -11.4, -55.1, -40.5 (2×), -18.1, -22 (3×), -9.79, -20.6, -42.1, -23.9, -37.5, 0.512, -15.4, -51.9, -16.5, -36.3, -25.1, -7.22, -28.1, -39.3, -29.5, -19.6 (3×), -32.9, -6.36, -27.6, -40.3, -25.9, -18.9, -8.3, -44.5, -51.5, -38, -29.3, -14.3, -1.56, -13.8, -30.1, -20.3, -23, -26.7, -42.2, -33.5, -27.7, -2.31, -68.8, -35.1, -31.5, -26.9, -21.7, -13.6, -30.4, -35.3, -48, -24.1, -35.7, -35.2 (2×), -43.8, -37, -17.9, -22.4, -20.1, -11.1, -37.6, -31.1, 2.76, -8.05, -51.1, -10.9, -37.7, -38.2, -34, -25.7, -24.8, -25, -54.7, -39.7, -34.9, -42.7 (2×), -66.5, -37.4, -29.7, -22.7, -34.4, 3.61, 3.18, -49.7, -31.7 (2×), -16.9, -51, -55.5, -58.9, -60.9, -1.08, -30.3, -20.8, -47, 3.44, -5.81, -28.8% and inactive: 11.9%, 37.2%"
same,growth,"[1]; 25 µM, runs of 1993","active: -46.8, -29.3, -18.3, -12.6 (2×), -7.66, -48.6, 0.843, -1.31, -31.3, -40.7, -10.6, 6.42, -0.859, -48.3, -30.4, -15.5, -15.4, -28.3, -22.2, 4.59, -2.64, 1.48, -5.35, -19.4, -46.5, -13.4, -24.7, -40, -18.9, -38.7, -21.3, -14.2, -26.9, -29.9, 2.57, -44.6, -18.7, -20.7, -10.1, -49.7 (2×), -29.8, -26.7, -49.6, -24.3% and inactive: 104%"
same,growth,"[1]; 25 µM, runs of 1994","active: -28.5, -16.9, -7.23, -46.2, -24.2, -19.3 (2×), -25.8, -44.9, -71.9, 0.268, -47.3, -30.8, -30, -6.8, -58.7, -34.7, -62, -40.1, -26.7, -59.4, -11.2, -31.9, -24.7, 8.9, -17.7, -33.2, 1.99, -11.6% and inactive: 89.7%"
same,growth,"[1]; 25 µM, runs of 1995","active: -10.2, -3.4, -26.9, 9.71, -49.9, -42.4, -9.49, -24.8, -38.3, 0, -20, -3.36, -15.4, -29.7, -28.7, 1.59, -21, -25.7, -17.5, -79.6, -12.5, 3.92, -34, -19.6, -4.69, 1.79, 1.08, -4.87, -10.6, -17.9, 4.56, -32.5, -35.5, -18.1, -59.5, -30.1, -9.64, -32.7, -0.493% and inactive: 13.8%"
same,growth,"[1]; 25 µM, runs of 1996","active: -21.2, 0.84, -25, -7.01, -15.1, -2.6, 0.153, -29.7, -34.3, -16.5, -37.6, -36.6, -5.5, -14, -32.6, -52.4, 6.66, -30.1, -21.1, 1.07, -25.1, -21.7, 0.798, -20.9, -14.2, -13.8, -15.4, -19.7 (2×), 4.8, -6.72, -1.05, -4.37, 7.97, -15.5, -7.86, -8.44, -39.3, -37, 2.13, -37.2, -11.9, 2.48, -3.4, -14.9, -12.2, -18.9, 4.52, -28.5, 0.279, -20.2, -41.2, -24.1% and inactive: 99.9%, 11.6%"
same,growth,"[1]; 25 µM, runs of 1997","active: -49, -18.8, -35.2, -21.6, -24.3, 1.93, 1.56, -3.36, -35, -40.6, 5.89, -38.1, -25.2, -44.4, -20.2, -26.7, -36.2, -14.9, -8.22, -44.9, -24, -39.3, -23, -26.1, -33.9, -7.67, 3.86, 0.57, -34.2, 1.07, -13.4, -13, 4.11, -21.8, -67.9, -15.4, -20.5, -7.92, -7.95, -15.1%"
same,growth,"[1]; 25 µM, runs of 1998","active: -58.7, -35.4, 0.452, 0, 0.539, 0.957, -49.1, -55.7, -0.595, -39.2, 3.26, -36.2, 3.42, -57.6, -49.8, -37.2, 7.79, -42.4, -41.2, -9.23, 6.54, 3.1, -20.1, -27.4, 3.05% and inactive: 12.3%, 19.8%"
same,growth,"[1]; 25 µM, runs of 1999","active: -66.3, -58.9, -32.7, -100 (2×), -19.1, -63.6, 1.87 (2×), 2.79, -74, -93.8, -14.1, 1.66% and inactive: 12%"
same,growth,"[1]; 25 µM, runs of 2000","active: -100% (3×), -68.5%"
same,growth,[2]; runs of 2006,active: 6.31% and inactive: 19.1%
same,growth,[2]; runs of 2007,"active: 9.04, 7.52, -12.7, 8.76, -24, 8.73, 2.29% and inactive: 43.4, 29.7, 18.9, 29.8, 10.8, 24.6, 26.5, 32.5, 28.4, 18.4 (2×), 36, 20.1, 30.2, 34 (2×), 33.6, 49.7, 52.3, 39.5, 40.9, 46.7, 43.8, 40.8, 39.9, 40.7, 25.6, 16.6, 12.5, 20, 28.5, 49.6, 33.8%"
same,growth,[2]; runs of 2008,"inactive: 35.1, 33.1, 42.6, 43.6, 37.2, 16.6, 24.9, 40.3, 42.5, 45.1, 39.6, 22.6, 26.1, 33.2, 24.2, 21.1, 44.6, 27.8, 38.5, 101, 23.6 (2×), 11.6, 13.7, 21.5, 20.2, 31, 34, 38.8, 40.5, 36.6, 29.2, 31.7 (2×), 33.4, 38.6, 28.9, 19.7% and active: 5.04, 9.18, 6.26, 0.758, -0.357, 6.01, -23, -36.2, -0.138, -21.7, 6.22, 7.92%"
same,growth,[2]; runs of 2009,"inactive: 34.8 (2×), 27.4, 27.5, 46.5, 14.1 (2×), 11.2, 17.9, 12.5 (2×), 11, 16.5, 17.7, 32.4 (2×), 35.6, 26.2, 40, 32.1 (2×), 29.4, 52.7, 41.4, 29.9, 23.3, 31.8, 35.1, 30.1, 11.1, 22.5, 14.6, 33.6, 25.4, 40.8, 28.4, 25.7 (2×), 23.8, 28.2, 19.6, 44.6, 22.2, 35.7, 37.6, 31.7, 21.5, 21.1, 47, 39.1, 11.9, 18, 26.8, 30.7, 26.3% and active: 5.72, 3.93, -5.98, -6.09, 9.42, 0.151, 5.68, -16.4, -0.282, 6.94, -20, 1.75, -7.47, -6.1, 8.02%"
same,growth,[2]; runs of 2010,"inactive: 40.6, 36.1, 41.1, 34.8, 27.6, 33.6, 43.3, 33.8, 53.3, 14.4, 11.6, 14.3, 16.7, 26.3, 19.9, 17.5, 22.5, 20.5, 28, 30.5, 18.8, 44.2, 51.8, 32.7, 30.2, 25.9, 37.2, 46.8, 42.1, 16.8, 30.6, 25.1, 17.2, 28.5, 28.8, 29.5, 51.5, 37.7 (2×), 30.7, 41.2, 40.8, 35.4, 50.8, 17, 13.5, 12.3, 18.6, 15.7% and active: -6.79, 9.99, -38.4, 8.39, 1.92%"
same,growth,[2]; runs of 2011,"inactive: 39.5 (2×), 35.6, 20.4, 42, 51.1, 43.1, 16.5, 25 (2×), 29.1, 47, 34.6, 14.7, 44.1, 49, 36.4, 28.5, 14.3 (2×), 35.2, 52.1, 50.1, 50.6, 46.3, 22.2, 30.6 (2×), 28.3, 17.5, 22, 29.2, 22.7, 19.8, 11.6, 26.6, 26.3, 25.7, 10.5, 25.8, 19.6, 15.8, 20.1, 21.5, 16.4, 29.9, 20.6, 41.2, 43.9, 36.5, 50, 40.4% and active: -20, -0.575, -5.22, -39.3, 5.09, 0.919, -7.81%"
